Source: PMC12136788
This is one part of the list.

T1: UNK ZnF1-3 (human, UniProt Q9C0B0 31-174)
T1 sequence: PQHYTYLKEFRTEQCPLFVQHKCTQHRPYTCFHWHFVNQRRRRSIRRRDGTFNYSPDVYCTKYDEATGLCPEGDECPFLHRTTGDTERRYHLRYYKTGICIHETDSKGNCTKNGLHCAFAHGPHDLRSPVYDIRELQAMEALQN

B1: chr1:39494447:39494448:+_ENSG00000168653_ENST00000372967|hu_mus|hu_hu_hu_mus_False|8_48 (ssRNA)
RNA: GGGAGUUCUACAGUCCGACGAUCGCACCGAGCGGCGUUCUUAUAGGGCUGUUCUGCGCUUAGGAACAUAAAGUGCCGGUCCAGGCUAAGGCCGAACUUUUUCUGUAUGUCAAGGAAAGGCAUGGCUGAUGCUCGUGCUUGUCACAACAGAGGAUUGAGCAUCA
B2: chr17:56552419:56552420:-_ENSMUSG00000013236_ENSMUST00000086828|mus_mus|mus_mus_mus_hu_False|8_78 (ssRNA)
RNA: GGGAGUUCUACAGUCCGACGAUCAAAAAAUACACUAUUUAAAAAAAAUGAAAUGUCAGAAAAAGAAGUUACACUGAGAGUUUUAAAAGAAAGCUGGAUUCUGGUCCCAGCCCAGUGUCCCCAGGCUGAGUGCGGAAGAGGAGCCAACAGAGGAUUGAGCAUCA
B3: chr1:115282395:115282396:-_ENSG00000009307_ENST00000339438|hu_mus|FALSE|FALSE (ssRNA)
RNA: GGGAGUUCUACAGUCCGACGAUCAUUAUAUUGUGAACAGUGGAAGAAAAGUCUAGCUUGCCGUUCUGAACACUGAAUGAAUCCGUAAGAGGUCAAGAGUUUUUCAAUAACCCCAGUUUCACGAAGUGCUGCUGAAGUACCAUUCAACAGAGGAUUGAGCAUCA
B4: chr2:14037654:14037655:+_ENSMUSG00000026718_ENSMUST00000102960|mus_hu|motif|central (ssRNA)
RNA: GGGAGUUCUACAGUCCGACGAUCAUGACCCUUAUUUAAUACGUUGCUUACUUCACUAGCAAAAUCUCUUGAACAUACUUCGGAAUGAAAAAUUUUGCCACAGUUUGAUACACAUGCUCCUAGAAGAGUCAAAGCCUGCAUAGCCAACAGAGGAUUGAGCAUCA
B5: chr19:2271408:2271409:+_ENSG00000104904_ENST00000602676|hu_hu|motif|central (ssRNA)
RNA: GGGAGUUCUACAGUCCGACGAUCGAUCUUCAGGGGUGGGUGAGGGGCAUCGGAGCACCACCGAGGCCCCGGACCCGGGUUACGGCAGCAGUGGAGGGAGACCCUGGAACUCUCACUGCUGCUGCCGCCGCGGCUGUGCAGGCUCAACAGAGGAUUGAGCAUCA
B6: chr5:40767622:40767623:-_ENSG00000132356_ENST00000397128|hu_mus|hu_hu_hu_mus_False|38_108 (ssRNA)
RNA: GGGAGUUCUACAGUCCGACGAUCAUCUUUGAUUGUGGCCCUCUUCAUGGGAUCCACCUGCAGCAUAUGUUUCAAAAGGCUGAUUACUGAAGGGUUUAAAUAUUGAGGGGUAUAAAAGAUCCCAUCACAUAUCUUCUUAAAAAGCAACAGAGGAUUGAGCAUCA
B7: chr2:152838176:152838177:-_ENSMUSG00000027472_ENSMUST00000028972|mus_hu|FALSE|FALSE (ssRNA)
RNA: GGGAGUUCUACAGUCCGACGAUCUUCAAUCAUUUCCUUUGUCUCAGGGUGAGGCAUCUUGAUAAACAUGUUCCCGAAGCAAACCAUCACAUCUUCAGAGAGGCUGAGAUCCUUCUGCAGGGCCCUCAGGCCCUCUCGAUUCUGCAACAGAGGAUUGAGCAUCA
B8: 8059474_8059594_222_3pUTR_ENSMUSG00000022142_ENSMUST00000163765|mouse|control|control (ssRNA)
RNA: GGGAGUUCUACAGUCCGACGAUCGACACCAUGAGCAGCUCAGAAAGGUCCGGGUACAUGCGGUCUUCUUGCAACUGUCGAUCGAUAAGCCUCCCCGCGUUUUCCAAAGCUUCCUGCAGGGAGGCGGCGGCCGACGUAGAGGCCCAACAGAGGAUUGAGCAUCA
B9: chr1:23395093:23395094:+_ENSG00000004487_ENST00000356634|perfect_dup|motif|central (ssRNA)
RNA: GGGAGUUCUACAGUCCGACGAUCUGCCUGGCCAAGGGAUACAGGUUUAUUAUUGAGGACGUUGAAGUCUAACUGGUGACGGAGGUAAGAAGUGGCUUCUAGCAACCGGUUAAAUUCUUGUUCUACCAUUUCAUCUUUUUCUUUCAACAGAGGAUUGAGCAUCA
B10: chr3:100860513:100860514:-_ENSMUSG00000027864_ENSMUST00000102694|mus_hu|FALSE|FALSE (ssRNA)
RNA: GGGAGUUCUACAGUCCGACGAUCGAUGAGAACAGAGUAGCGUGGCGACUUAAUAUUCUUGGAAGAUACUUUGCAAGUCAUCUCAAAUGUAUUUCCGGCAGCAAAGAAAGGCUUUGGCUGCCUCGCCUUCACCACAAGCACGGACAACAGAGGAUUGAGCAUCA
B11: chr1:244855233:244855234:+_ENSG00000121644_ENST00000302550|hu_mus|FALSE|FALSE (ssRNA)
RNA: GGGAGUUCUACAGUCCGACGAUCCAUCAGAUGGUAGGCGUUGCCCUUAUACUCUUUCCCCAGUUCUUCUACAAUUUUCUCUAUAUCAUCUUCUAGAAAGUCCGUACUUCCUAGAACAACAGCUUCUUUAAAUUUAAAUGUUUCCAACAGAGGAUUGAGCAUCA
B12: 20112859_20113845_501_CDS_ENSG00000099901_ENST00000331821|human|control|control (ssRNA)
RNA: GGGAGUUCUACAGUCCGACGAUCUGUUUUGAAUUUCUGUGCAUUCUCAGCAUUCAGGAAGCGGAUGGCCAGCAGCUCUGGCUUGGGGCACUCGUCGGCGAAGUCAGCGUGGGUGUUCCAGACCCAGGCACGGUCGCUACCUGCCAACAGAGGAUUGAGCAUCA
B13: chr10:90581586:90581587:-_ENSMUSG00000061904_ENSMUST00000076694|mus_mus|motif|central (ssRNA)
RNA: GGGAGUUCUACAGUCCGACGAUCAGCUUCCAUAGGAGCCAGGGCAAUGUCAGCGAAGAAUUCAGCACUGGCAGAAGAAGCGGAAUACAGUGAUGUGCGCCACAGGUAGGUGUUUUCCUCACCAAGUAUGUUGCUAUAUAAGGCCAACAGAGGAUUGAGCAUCA
B14: chr3:102851058:102851059:+_ENSMUSG00000068823_ENSMUST00000029446|mus_mus|FALSE|FALSE (ssRNA)
RNA: GGGAGUUCUACAGUCCGACGAUCGCCAUCUUCUGCCUCCUUGUCUUUGCCUUUAUUUGGGCUUGUAGUUUUAGGAUUGGAAAAAGUGGCUUCUUUUUCUACGGUGCCCAGAAAACGAUGAUCUGAAUGGGAAUGGAAUGAAACCAACAGAGGAUUGAGCAUCA
B15: 28706049_28706169_187_CDS_ENSG00000108582_ENST00000225719|human|control|control (ssRNA)
RNA: GGGAGUUCUACAGUCCGACGAUCGCGGUCGAACUGGCCCUCGGCCGCCUCGGCGCCCGCGCUCGUAGUUGUGGUAGUCGCCUCCGCCUUCUUGAUGUGAGCCGCCCGGGCCGAGCUCCCCAGCAGCAGCAGGCACAUGAGCAACAACAGAGGAUUGAGCAUCA
B16: 90049698_90049818_86_3pUTR_ENSG00000070961_ENST00000261173|human|control|control (ssRNA)
RNA: GGGAGUUCUACAGUCCGACGAUCAAAAGAAUUUAAUUUUCACUUGAUGUAUUUCCAAGAUGAAAAUCUUUUAAGUAUGAAAAUCUUUCUUAAACCAAACACUCAUUGUAUGACUUUGUAAAGCAGCAUCAGCAGCAACAUUUCCAACAGAGGAUUGAGCAUCA
B17: 158643113_158646124_607_CDS_ENSMUSG00000027655_ENSMUST00000109478|mouse|control|control (ssRNA)
RNA: GGGAGUUCUACAGUCCGACGAUCAAUCUUCUUCAGCAAGCCAAUGGCAAUGUCCGUGUACAAGGUCCUCUCGUGGGCUUCAUCCAGCAUGAUGACACUAUAUUUUGUUAACAGCGGAUCCACCAUCAUUUCUCUGACCAGCAUCAACAGAGGAUUGAGCAUCA
B18: chr17:42882304:42882305:-_ENSG00000182963_ENST00000426548|hu_hu|FALSE|FALSE (ssRNA)
RNA: GGGAGUUCUACAGUCCGACGAUCCUUGUAGGCGAUCUUAGCAUUGGACAGUUCGGUGUACUGGAUUUGAUCUGGUUUGACAGCAAUGUUAUAGCCAGGGGGAGCAGAUGGUGUAUUCCAAGUGAAAGGAUAAUUAUAAGCACCCAACAGAGGAUUGAGCAUCA
B19: 32201165_32260576_2418_3pUTR_ENSMUSG00000029765_ENSMUST00000115096|mouse|control|control (ssRNA)
RNA: GGGAGUUCUACAGUCCGACGAUCUAAGCUGCCUUUCUGACAUGAUGUAGAGUUGCUCGUGGUCCUUGGAAAAGGCCAUGUCCCGGAGGACUGGUCCUGAGUCCACCACCUGCACAGUCUCAUAUUGGAGGGCAUUUCCCUUGGCAACAGAGGAUUGAGCAUCA
B20: chr2:32089778:32089779:+_ENSMUSG00000039262_ENSMUST00000036691|mus_hu|FALSE|FALSE (ssRNA)
RNA: GGGAGUUCUACAGUCCGACGAUCUAAACAAGCUGCACAUUACACCUCUAGCCAUCGUCUGCCCUUUCAAAUAUCUGGUCUACAUGGAAAGACAAAGAGGAAAGGCCAAAACAUAAACAAAAGGAAACAAAAACAAAACACAACCAACAGAGGAUUGAGCAUCA
B21: 51717800_51717920_1867_CDS_ENSMUSG00000047085_ENSMUST00000058667|mouse|control|control (ssRNA)
RNA: GGGAGUUCUACAGUCCGACGAUCGAUCUCCACAGUGCGCGUGGGCCCGUGGUGCUUGUGCAGCUGGUGCUGCUUGCGCAGCUUGUAGAAGGCCACCAGCAUCACGGCGGCCAUGAAGGUGAUGGCCACGAAGCAGCCGAUGAUCAACAGAGGAUUGAGCAUCA
B22: chr1:137281999:137282000:-_ENSMUSG00000041879_ENSMUST00000161189|mus_hu|FALSE|FALSE (ssRNA)
RNA: GGGAGUUCUACAGUCCGACGAUCUUAGAUGCCGAUGGUCUGUAGAACUCGCCUCUCAUUGUCAUUAAGGUGGCCUGAAAACAUUAUGUAGCAGGGCUGCUGAGCAAACUGGCAGAGGAAAUCUGUGAGAUAUGCCUGCAGAUCCAACAGAGGAUUGAGCAUCA

molecular target: T1, UNK ZnF1-3; experiment: nsRBNS (natural sequence RNA bind-n-seq); RBNS binding buffer (assumed for nsRBNS): 25 mM Tris pH 7.5, 150 mM KCl, 3 mM MgCl2, 0.01% Triton X-100, 500 ug/ml BSA, 20 U/ml SUPERase-In, 4 C; UNK is unkempt and MSI1 is Musashi-1; names of the RNAs are library labels; protein concentration not given here; high values mean tight binding

Row | Binder | binding signal [enrichment R]
1 | B1 | 0.849
2 | B2 | 2.06
3 | B3 | 1.2
4 | B4 | 1.47
5 | B5 | 0.784
6 | B6 | 1.21
7 | B7 | 1.24
8 | B8 | 0.759
9 | B9 | 0.618
10 | B10 | 0.94
11 | B11 | 1.39
12 | B12 | 0.856
13 | B13 | 2.48
14 | B14 | 0.901
15 | B15 | 1.03
16 | B16 | 1.01
17 | B17 | 0.993
18 | B18 | 1.2
19 | B19 | 0.795
20 | B20 | 2.59
21 | B21 | 0.571
22 | B22 | 0.981
